This passage reports binding signal (log2 normalized intensity) results from paper PMC10726135.

The other results are listed elsewhere or left out. At the low end of the ranking the order means little. The protein was read in a cell extract, so binding may be indirect.

This assay deals with T1, HNF4alpha2 (COS-7 nuclear extract) (UniProt P41235).
T1 sequence: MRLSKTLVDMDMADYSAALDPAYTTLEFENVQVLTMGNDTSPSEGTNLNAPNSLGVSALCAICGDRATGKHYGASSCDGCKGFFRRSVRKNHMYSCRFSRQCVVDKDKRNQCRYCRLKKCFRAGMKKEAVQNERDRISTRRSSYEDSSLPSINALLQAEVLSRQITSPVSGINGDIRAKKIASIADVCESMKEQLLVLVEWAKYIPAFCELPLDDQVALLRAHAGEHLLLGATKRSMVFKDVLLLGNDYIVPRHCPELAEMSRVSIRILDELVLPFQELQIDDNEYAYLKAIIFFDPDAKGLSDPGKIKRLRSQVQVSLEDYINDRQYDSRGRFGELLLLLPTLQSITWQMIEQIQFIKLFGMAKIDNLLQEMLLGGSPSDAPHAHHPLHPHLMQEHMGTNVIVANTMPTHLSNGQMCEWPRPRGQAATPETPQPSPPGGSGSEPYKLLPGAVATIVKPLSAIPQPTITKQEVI
The assay is described as follows: protein-binding microarray. The following applies: COS-7 nuclear extract on double-stranded Agilent 4x180k PBM; binding buffer, salt, pH and temperature not given; high values mean tight binding; double strand, one strand shown; sequences stand for … in …GCCTAGGGAGATTAGAGTATCGGTCGA
Regarding TGGACCCAGCTGGTAAGTGCAAGGCCCAGC, the binding signal (log2 normalized intensity) is -1.07.

With CCTGACTCATAGCTCCAGAGCCACCGCTAC, the binding signal (log2 normalized intensity) is -1.14.

For CACTGTAACAGTTCAAGCAGTATTTGTGCC, the binding signal (log2 normalized intensity) is 0.305.

Consider ACGCTCCCAGTATGAGCGGCGCTGACCCCG, for which the binding signal (log2 normalized intensity) is 4.58.

As to ACGAATGGGCAAAACATTCCTAAACAAGGG, the binding signal (log2 normalized intensity) is -1.1.

For CTGAGCAGGGGACTAAGAGCAGCCTGACTA, the binding signal (log2 normalized intensity) is -1.06.

For the sequence CTAAGCAGCGAAGCTGTGTCAGGCATTGTA, the binding signal (log2 normalized intensity) was -0.168.

For TCTGATGAGTCCCCCGGCTCTACGCAAGTG, the binding signal (log2 normalized intensity) was 2.6.

With CGCAAGCATATCTCTAGATCTCAGTTGGTC, the binding signal (log2 normalized intensity) is 1.2.

For AGGCTAAGGCAGGAGAATCGCTTGAACCCA, the binding signal (log2 normalized intensity) is 1.39.

Turning to GACCTAGAAGCCAGGGACCAGGAAGGCAGT, the binding signal (log2 normalized intensity) is -1.15.

Regarding CGCCCGCGCCGGCCTCGGTCCTCGCTCGCC, the binding signal (log2 normalized intensity) is -1.1.

Consider AGAGTTAATCTGTTTACACAGTGAGATGGC, for which the binding signal (log2 normalized intensity) was determined as 0.479.

For TGTGCAGAGGAGGGGGCAGGAGCCCAAGAA, the binding signal (log2 normalized intensity) was -1.11.

With TCTCTGACTGGAAGTTGCCCGAGCTGCCCT, the binding signal (log2 normalized intensity) was 1.86.

ACAAGATCTTTGGACTATTGTGAAGTGATA: the binding signal (log2 normalized intensity) came out at 1.9.

In the case of TTTCAAGAATGGAGAAAACAACATTCCTTG, the binding signal (log2 normalized intensity) is -0.213.

With GCATTCCTGCACACCTGCCTTTGATCAGGG, the binding signal (log2 normalized intensity) is -0.679.

For CTCTTTAGGCTGGACTCTGACCCATTCCTT, the binding signal (log2 normalized intensity) was 5.23.

On to GAGAGTCCTCTTGGTTTATGTTCACCTCAG, for which the binding signal (log2 normalized intensity) was determined as 0.597.

As for AGTACCGCTCCTCTCTGTATTCCCTCTCTT, the binding signal (log2 normalized intensity) was 0.0392.

Turning to ACAGGAGATCAGATGGGGTGAACTTTGGAC, the binding signal (log2 normalized intensity) came out at 8.41.

On to CAATGAACAAAGGTCGGTGGTATGTGTGTG, for which the binding signal (log2 normalized intensity) worked out at 3.25.

As to TGGTGCTTTTGATATTGTTGTAAAGCAGTG, the binding signal (log2 normalized intensity) stood at 1.91.

Turning to ATGAGTGACCTTTATCCAGTTCTGTGTACA, the binding signal (log2 normalized intensity) was 3.17.

Turning to AAAGCTGGCTGGCGGCTAGTGTACAGGTGA, the binding signal (log2 normalized intensity) worked out at 1.06.

As for ACAGAGAAGGCCCTGAACTCCCAGCCTCCA, the binding signal (log2 normalized intensity) was -1.21.

TTTCTCTCCTAAGCAGGACAGCAGAGTGGA: the binding signal (log2 normalized intensity) was -0.691.

AAAGCTTTTTGATTGCTTATAGCTTGCTTC: the binding signal (log2 normalized intensity) was -1.23.

With GCCTTCCCCTGCCACTTTCACAAATCATTA, the binding signal (log2 normalized intensity) was found to be 1.19.

For the sequence AGCTGGGCTATACAATTCCAGCAAGGATGG, the binding signal (log2 normalized intensity) was -1.2.

On to ATGCACTCATAACTAGGGTTCCAAGACCAA, for which the binding signal (log2 normalized intensity) is -1.17.

Turning to TATTTACATACCTTAGGCTGTGCATATTGG, the binding signal (log2 normalized intensity) worked out at 1.25.

Regarding TTCAAGCCTGAACAAACATGAGGGACTGGG, the binding signal (log2 normalized intensity) is -1.07.

As for GATTCCTCTTGAATTGGAAGGCAAAGTTCA, the binding signal (log2 normalized intensity) is 3.17.

Regarding TGCCTGCCGGCTCTGAAGAGAACGGCTGAT, the binding signal (log2 normalized intensity) was -1.07.

For TCCAGCTGTTGGTGACTGACCCTGATCCCT, the binding signal (log2 normalized intensity) is 2.81.

GTGTTCCTTTTTCTGTTCAATGGTGCTTTT: the binding signal (log2 normalized intensity) was determined as 2.2.

With TTAAGTTTTCGAGGAGTCAAAAGGTGTATG, the binding signal (log2 normalized intensity) turned out to be 1.31.

For GGTGAGCCATTGGCTGGGGTGTCGGCGAGT, the binding signal (log2 normalized intensity) is -0.92.

Regarding GAGTTTAGGGACCGCAAATAAAAGAGGGCC, the binding signal (log2 normalized intensity) is -1.1.

Consider AGAGCACATTCTTCCATATAACCCTTGAAC, for which the binding signal (log2 normalized intensity) came out at 3.6.

Take GCACAGCAGATGCTGGGCAAAGGGCAAGGC: the binding signal (log2 normalized intensity) worked out at 3.03.

For CTCAACCTCCCCCTGGGGACAGGTGTTAAT, the binding signal (log2 normalized intensity) was found to be 2.19.

Regarding GATAACAGCACATTCCTTAACATGGTTTGC, the binding signal (log2 normalized intensity) is 0.97.

In the case of TCCTCCTCCTGTTTGTATTCCTTGTCCTTG, the binding signal (log2 normalized intensity) came to 2.28.

For ATTTCACCTTTGGTCTTTGGTGAAACTCCA, the binding signal (log2 normalized intensity) came out at 2.57.

GGGTTTGTTTTTTGCCCTTTGTACCCACAC: the binding signal (log2 normalized intensity) came to 7.67.

Turning to TTGTCCTATGACTCTCTCAACACTGGCTTC, the binding signal (log2 normalized intensity) is 0.184.

With TAGCCTCTGGGCTGGCTTTAGCTCAGCGGT, the binding signal (log2 normalized intensity) is -1.19.

In the case of ATCAAAGGCTTCTAGAAGAGGTTAAAGACC, the binding signal (log2 normalized intensity) was 1.01.

With TAACATCTTTTCTCAGTTAACTGGAATGAA, the binding signal (log2 normalized intensity) turned out to be 1.22.

Take TGGCAGATTAGAGACCTCTAGACTCCAGCT: the binding signal (log2 normalized intensity) was -1.12.

Turning to AGAAAGAAACAGGGGATGTTGATTCCCCTG, the binding signal (log2 normalized intensity) was -1.24.

On to ATTTACTGAATGAATGTCCAACTTGCCCTG, for which the binding signal (log2 normalized intensity) is 1.64.

CTCTGTTTGATCAGCTGGTCCTTCAAGTGT: the binding signal (log2 normalized intensity) turned out to be 1.96.

GCATAACCAAACAGAGAGAAAGCAGTGACC: the binding signal (log2 normalized intensity) was 0.1.

For GTGCCCTTACATTTTGCTCTTTGTACCGTT, the binding signal (log2 normalized intensity) was 4.56.

Consider TTGATGGGCAGCGCGGCGCGCTGGGAAGGC, for which the binding signal (log2 normalized intensity) is -1.01.

CTGTGAGTCAGGTACCTGCTTCTGCCCCAG: the binding signal (log2 normalized intensity) was found to be 1.3.

As for TTGCATATGCCACAGGGCAAGACACCAAAG, the binding signal (log2 normalized intensity) was -1.08.

With CCTCTGAAAACTTTTACTGGGAAGAGATAA, the binding signal (log2 normalized intensity) was found to be 0.0146.

On to AGCACAACCCGGGCGCACAAGATGCCGCCT, for which the binding signal (log2 normalized intensity) is -1.08.

Take GCAAAAATGCCAGGCATTTGCGATAATAGA: the binding signal (log2 normalized intensity) is -1.13.

In the case of TTAGCTATCAGTGTTGACCTCTGGACCTCA, the binding signal (log2 normalized intensity) was 6.97.

As to GGAGAACAAAGTTCACCTTTCCCTTCTTCT, the binding signal (log2 normalized intensity) came out at 2.51.

In the case of GAGAGAGAGAGAGGTGGGCAAAGGTCTCAA, the binding signal (log2 normalized intensity) worked out at 2.55.

Consider TCACAAAGGGCTGAGGTTAAAGTCCACATT, for which the binding signal (log2 normalized intensity) was determined as 7.04.

For GAATTCTCTAAGTAATCAATGGTTGCACTC, the binding signal (log2 normalized intensity) came to 1.06.

For GATAACTGGGGGCAAAGGTTCACTTTGGGG, the binding signal (log2 normalized intensity) came to 4.16.

In the case of TTGGGGCTGATGTCTTTCTGGCCAGAGGGG, the binding signal (log2 normalized intensity) is -0.225.

As to AGCAGCATAAAGGACTTTCAACCCTGTGAT, the binding signal (log2 normalized intensity) came out at 2.9.

In the case of GCCTCTGGGCTTTGATGGACATTGCTGGTG, the binding signal (log2 normalized intensity) was 1.38.
